# In the supplement of paper PMC11369174, “Proteome-scale characterisation of motif-based interactome rewiring by disease mutations” (Molecular Systems Biology, 2024):
# The list shows a part of the results. Values come from read counts of a selection and are noisy.
# T1: GRAP2_SH3_2_O75791_274_329
# T1 chain: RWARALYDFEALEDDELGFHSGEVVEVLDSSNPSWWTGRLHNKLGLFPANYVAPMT
# T2: IRS2_PTB__Q9Y4H2_188_304
# T2 chain: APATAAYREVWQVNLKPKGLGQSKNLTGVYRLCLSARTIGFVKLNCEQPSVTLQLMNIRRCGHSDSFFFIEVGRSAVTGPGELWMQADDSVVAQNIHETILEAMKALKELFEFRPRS
# T3: GGA3_VHS__Q9NZ52_1_166
# T3 chain: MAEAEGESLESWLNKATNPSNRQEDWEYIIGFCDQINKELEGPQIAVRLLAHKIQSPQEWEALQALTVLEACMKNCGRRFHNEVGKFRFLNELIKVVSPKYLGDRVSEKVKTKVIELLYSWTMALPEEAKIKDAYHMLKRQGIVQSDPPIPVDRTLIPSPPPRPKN
# T4: PDZK1_PDZ_2_Q5T2W1_132_224
# T4 chain: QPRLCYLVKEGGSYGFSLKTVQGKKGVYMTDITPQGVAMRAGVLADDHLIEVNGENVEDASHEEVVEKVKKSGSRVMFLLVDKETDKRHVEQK
# T5: PIK3R1_SH3_1_P27986_6_78
# T5 chain: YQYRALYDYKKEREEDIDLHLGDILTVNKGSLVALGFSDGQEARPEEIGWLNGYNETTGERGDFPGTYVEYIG
# Target: T1, GRAP2_SH3_2_O75791_274_329
# Experiment: mean normalised NGS count of phage-displayed peptide after selection on bait (% of reads); baits are purified protein domains named by gene / domain / UniProt id / residues; peptides come from disordered regions of human proteins; higher = stronger enrichment / binding
# Conditions: replicate selections in which the peptide was seen: 5
row,Binder,mean normalised NGS count
1,TTVRPAKPPVVDRSLK [STAMBP 223-238 wt],0.0554
2,PAKPPVVDRSLKPGAL [STAMBP 227-242 wt],0.122
3,PEPVRASKPAPPPQAL [SPEG 2220-2235 wt],0.126
4,PPPPLPPREPFAPSLG [CTNND2 220-235 mut Q9UQB3.P224L],0.103

# Target: T2, IRS2_PTB__Q9Y4H2_188_304
# Experiment: as above
# Conditions: replicate selections in which the peptide was seen: 5
row,Binder,mean normalised NGS count
1,LFQITTFAGWDGLLAP [SCN2A 1717-1732 mut P35498.S1723F],47.5
2,LFQITTFAGWDGLLAP [SCN9A 1717-1732 mut P35498.S1723F],47.5
3,LFQITTFAGWDGLLAP [SCN10A 1717-1732 mut P35498.S1723F],47.5
4,LFQITTFAGWDGLLAP [SCN3A 1717-1732 mut P35498.S1723F],47.5
5,LFQITTFAGWDGLLAP [SCN1A 1717-1732 mut P35498.S1723F],47.5
6,LFQITTFAGWDGLLAP [SCN8A 1717-1732 mut P35498.S1723F],47.5
7,LFQITTFAGWDGLLAP [SCN5A 1717-1732 mut P35498.S1723F],47.5

# Target: T1, GRAP2_SH3_2_O75791_274_329
# Experiment: as above
# Conditions: replicate selections in which the peptide was seen: 4
row,Binder,mean normalised NGS count
1,QPIDYSLKYPTDIPSS [APC 1175-1190 mut P25054.A1184P],0.0642
2,APPSYDRVTKPVVEKH [SCN1A 1982-1997 mut P35498.I1993V],0.0199
3,LDTALSKIGEKSLFPK [HMBS 64-79 mut P08397.T78P],17.4
4,PVVDRFLKPGALSNSE [STAMBP 231-246 mut O95630.S236F],0.0206

# Target: Intersectin-1_SH3_3_Q15811_1002_1060
# Experiment: as above
# Conditions: replicate selections in which the peptide was seen: 2
row,Binder,mean normalised NGS count
1,VKVSEPPLPPGRVTLV [TTN 26217-26232 wt],0.00558
2,SNQEDTGYKFRVLPQP [PMS2 553-568 mut P54278.C560Y],0.00595
3,EPPLPPGRVTLADVTR [TTN 26221-26236 mut Q8WZ42.V26232A],0.011

# Target: T3, GGA3_VHS__Q9NZ52_1_166
# Experiment: as above
# Conditions: replicate selections in which the peptide was seen: 5
row,Binder,mean normalised NGS count
1,LLQVDTFKGWMDIMYA [SCN3A 1425-1440 mut P35498.A1429D],8.05
2,LLQVDTFKGWMDIMYA [SCN4A 1425-1440 mut P35498.A1429D],8.05
3,LLQVDTFKGWMDIMYA [SCN8A 1425-1440 mut P35498.A1429D],8.05
4,LLQVDTFKGWMDIMYA [SCN1A 1425-1440 mut P35498.A1429D],8.05
5,YYWNADTDLVSWLSPH [PQBP1 64-79 wt],18.6
6,LLQVDTFKGWMDIMYA [SCN10A 1425-1440 mut P35498.A1429D],8.05
7,LLQVDTFKGWMDIMYA [SCN2A 1425-1440 mut P35498.A1429D],8.05
8,LLQVDTFKGWMDIMYA [SCN5A 1425-1440 mut P35498.A1429D],8.05

# Target: T1, GRAP2_SH3_2_O75791_274_329
# Experiment: as above
# Conditions: replicate selections in which the peptide was seen: 6
row,Binder,mean normalised NGS count
1,PVVDRSLKPGALSNSE [STAMBP 231-246 wt],0.0214
2,PEPVRASKPAPPPEAL [SPEG 2220-2235 mut Q15772.Q2233E],1.38
3,STAAAPPSYDRVTKPV [SCN1A 1978-1993 mut P35498.I1993V],1.17
4,TTVRPAKPPVVDRYLK [STAMBP 223-238 mut O95630.S236Y],5.33
5,STAAAPPSYDRVTKPI [SCN1A 1978-1993 wt],68.1
6,PAKPPVVDRFLKPGAL [STAMBP 227-242 mut O95630.S236F],3.15

# Target: Intersectin-1_SH3_1_Q15811_740_806
# Experiment: as above
# Conditions: replicate selections in which the peptide was seen: 6
row,Binder,mean normalised NGS count
1,LEGAAPPIPPRLHSED [DISC1 725-740 wt],10.6
2,LEGAAPPIPPRLHSKD [DISC1 725-740 mut Q9NRI5.E739K],0.402
3,YPPLPPRWLEVINITK [TTN 15009-15024 mut Q8WZ42.S15012L],0.505
4,YGDYPKLPDRSQHERD [NDUFB8 72-87 wt],0.305
5,PPPPLPPREPFAPSLG [CTNND2 220-235 mut Q9UQB3.P224L],80.9

# Target: Intersectin-1_SH3_3_Q15811_1002_1060
# Experiment: as above
# Conditions: replicate selections in which the peptide was seen: 6
row,Binder,mean normalised NGS count
1,LEGAAPPIPPRLHSED [DISC1 725-740 wt],0.618
2,PPPPPRGQVTLYEHNN [AAAS 8-23 wt],0.456
3,LEGAAPPIPPRLHSKD [DISC1 725-740 mut Q9NRI5.E739K],0.0547
4,PPPPPPPREPFAPSLG [CTNND2 220-235 wt],0.367
5,YPPLPPRWLEVINITK [TTN 15009-15024 mut Q8WZ42.S15012L],0.119
6,QVIEGRQLPEVNIKPV [DYSF 225-240 mut O75923.G234E],0.724
7,PPPPLPPREPFAPSLG [CTNND2 220-235 mut Q9UQB3.P224L],95.7

# Target: Intersectin-1_SH3_5_Q15811_1155_1214
# Experiment: as above
# Conditions: replicate selections in which the peptide was seen: 6
row,Binder,mean normalised NGS count
1,LEGAAPPIPPRLHSED [DISC1 725-740 wt],33.8
2,PPPPPRGQVTLYEHNN [AAAS 8-23 wt],47.7
3,LEGAAPPIPPRLHSKD [DISC1 725-740 mut Q9NRI5.E739K],4.27
4,PPPPPPPREPFAPSLG [CTNND2 220-235 wt],1.37
5,PPPPPRGKVTLYEHNN [AAAS 8-23 mut Q9NRG9.Q15K],0.463

# Target: Src_SH3__P12931_87_144
# Experiment: as above
# Conditions: replicate selections in which the peptide was seen: 5
row,Binder,mean normalised NGS count
1,LEGAAPPIPPRLHSED [DISC1 725-740 wt],0.091

# Target: T1, GRAP2_SH3_2_O75791_274_329
# Experiment: as above
# Conditions: replicate selections in which the peptide was seen: 2
row,Binder,mean normalised NGS count
1,QLGMRMQHNLEQQIQA [SPTAN1 2299-2314 wt],2.57

# Target: Src_SH3__P12931_87_144
# Experiment: as above
# Conditions: replicate selections in which the peptide was seen: 6
row,Binder,mean normalised NGS count
1,PPPPPRGQVTLYEHNN [AAAS 8-23 wt],2.5
2,PPPPPPPREPFAPSLG [CTNND2 220-235 wt],0.94
3,FLPPTPLEPSPTLPDL [DYSF 133-148 mut O75923.P134L],0.628
4,YPPLPPRWLEVINITK [TTN 15009-15024 mut Q8WZ42.S15012L],0.0728
5,KPPPLPRSNTVASFSS [TSC2 1262-1277 wt],3.18
6,PPPPPRGKVTLYEHNN [AAAS 8-23 mut Q9NRG9.Q15K],1.46
7,QVIEGRQLPEVNIKPV [DYSF 225-240 mut O75923.G234E],1.27
8,PPPPLPPREPFAPSLG [CTNND2 220-235 mut Q9UQB3.P224L],70.5

# Target: T4, PDZK1_PDZ_2_Q5T2W1_132_224
# Experiment: as above
# Conditions: replicate selections in which the peptide was seen: 6
row,Binder,mean normalised NGS count
1,YYWNADTDLVSWLSPH [PQBP1 64-79 wt],50.5

# Target: Intersectin-1_SH3_2_Q15811_913_971
# Experiment: as above
# Conditions: replicate selections in which the peptide was seen: 6
row,Binder,mean normalised NGS count
1,AVPLFPPPTPLEPSPT [DYSF 129-144 wt],5.77
2,FLPPTPLEPSPTLPDL [DYSF 133-148 mut O75923.P134L],33.6
3,AVPLFLPPTPLEPSPT [DYSF 129-144 mut O75923.P134L],12.3

# Target: T5, PIK3R1_SH3_1_P27986_6_78
# Experiment: as above
# Conditions: replicate selections in which the peptide was seen: 7
row,Binder,mean normalised NGS count
1,PEPVRASKPAPPPQAL [SPEG 2220-2235 wt],0.206

# Target: Intersectin-1_SH3_2_Q15811_913_971
# Experiment: as above
# Conditions: replicate selections in which the peptide was seen: 3
row,Binder,mean normalised NGS count
1,FPPPTPLEPSPTLPDL [DYSF 133-148 wt],0.0171
2,STAAAPPSYDRVTKPI [SCN1A 1978-1993 wt],1.05

# Target: NCK1_SH3_1_P16333_5_60
# Experiment: as above
# Conditions: replicate selections in which the peptide was seen: 5
row,Binder,mean normalised NGS count
1,FLPPTPLEPSPTLPDL [DYSF 133-148 mut O75923.P134L],0.0703

# Target: Intersectin-1_SH3_5_Q15811_1155_1214
# Experiment: as above
# Conditions: replicate selections in which the peptide was seen: 2
row,Binder,mean normalised NGS count
1,LLQLRLAESQARLDHD [BLOC1S3 108-123 wt],0.381

# Target: MK08_Pkinase__P45983_1_363
# Sequence (chain, as listed by the source): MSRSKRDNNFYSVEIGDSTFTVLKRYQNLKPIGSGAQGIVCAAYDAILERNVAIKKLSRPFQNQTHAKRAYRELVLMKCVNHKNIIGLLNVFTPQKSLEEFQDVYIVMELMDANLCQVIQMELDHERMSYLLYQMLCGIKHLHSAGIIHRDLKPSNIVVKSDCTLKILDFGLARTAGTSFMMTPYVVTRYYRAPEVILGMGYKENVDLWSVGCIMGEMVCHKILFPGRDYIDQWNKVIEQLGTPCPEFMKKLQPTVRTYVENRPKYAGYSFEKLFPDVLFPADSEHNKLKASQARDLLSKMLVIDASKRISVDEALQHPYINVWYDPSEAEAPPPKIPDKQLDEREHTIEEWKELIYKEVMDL
# Experiment: as above
# Conditions: replicate selections in which the peptide was seen: 2
row,Binder,mean normalised NGS count
1,LLQLRLAESQARLDHD [BLOC1S3 108-123 wt],0.76

# Target: NCK1_SH3_1_P16333_5_60
# Experiment: as above
# Conditions: replicate selections in which the peptide was seen: 3
row,Binder,mean normalised NGS count
1,AVPLFLPPTPLEPSPT [DYSF 129-144 mut O75923.P134L],0.0115

# Target: Src_SH3__P12931_87_144
# Experiment: as above
# Conditions: replicate selections in which the peptide was seen: 4
row,Binder,mean normalised NGS count
1,SNQEDTGYKFRVLPQP [PMS2 553-568 mut P54278.C560Y],0.0536
2,EPPLPPGRVTLADVTR [TTN 26221-26236 mut Q8WZ42.V26232A],0.0584

# Target: Intersectin-1_SH3_3_Q15811_1002_1060
# Experiment: as above
# Conditions: replicate selections in which the peptide was seen: 3
row,Binder,mean normalised NGS count
1,KPPPLPRSNTVASFSS [TSC2 1262-1277 wt],0.00544
2,YGDYPKLPDRSQHERD [NDUFB8 72-87 wt],0.00784

# Same assay, conditions: replicate selections in which the peptide was seen: 5
row,Binder,mean normalised NGS count
1,PPPPPRGKVTLYEHNN [AAAS 8-23 mut Q9NRG9.Q15K],0.185

# Same assay, conditions: replicate selections in which the peptide was seen: 4
row,Binder,mean normalised NGS count
1,MAPPSEERPLIPQRSA [JAK3 1-16 mut P52333.T8R],0.0204

# Target: Intersectin-1_SH3_1_Q15811_740_806
# Experiment: as above
# Conditions: replicate selections in which the peptide was seen: 4
row,Binder,mean normalised NGS count
1,DGMGYGDYPKLPDRSQ [NDUFB8 68-83 wt],0.00432
